From patent publication US10184140B2, “Materials and methods for production of bi-functional fatty acids in recombinant bacteria” (IOWA STATE UNIVERSITY RESEARCH FOUNDATION, INC., priority 2013, dated 2019)
Where two headings read alike, the source gives them in different places.

System: B. subtilis ΔbfabHA ΔbfabHB::erm double-deletion mutant
Conditions: for Support of growth of the KASIII-deficient strain: at or below 20° C.
Protocol: E. coli and B. subtilis were routinely grown in LB medium at 37° C. B. subtilis minimal medium was composed of Spizizen salts (Spizizen, PNAS USA 44: 1072-1078 (1958)), supplemented with 0.5% glucose and amino acids (Sueoka et al., Cold Spring Harbor Symp. Quant. Biol. 33: 695-705 (1968)). As needed, media were supplemented with erythromycin (1 μg/ml) and ampicillin (100 μg/ml). IPTG and X-gal were used at concentrations of 0.4-1 mM and 40 μg/ml, respectively. As needed, media were supplemented with 10-100 μM individual fatty acids suspended in 0.01% (v/v) Brij 58P detergent. Fatty acids were obtained from Sigma-Aldrich Corporation (St. Louis, Mo.). The purity of the commercial sources of anteiso-C16:0, iso-C16:0 and palmitoleic acid were determined by GC-MS analysis (see Table 1). Cell density was determined by monitoring A600 using a Spectronic 20D+ spectrophotometer (Thermo Fisher Scientific Inc., Waltham, Mass.) or in a 96-well plate using an ELx808 Absorbance Microplate Reader (BioTek Instruments, Inc., Winooski, Vt.). Doubling time (Td) was determined from the log-phase time points of cultures.
A 0.5 ml aliquot of an overnight B. subtilis culture normalized for equal cell density was collected by centrifugation at 13,200×g for 30 seconds. The cell pellet was suspended in 50 ml minimal medium or LB rich medium. Cell cultures were shaken at 250 rpm. Cells were collected at late log phase by centrifugation at 5,000×g for 10 minutes. The collected cell pellets were lyophilized and stored at −20° C. until analysis. Lipids were extracted from lyophilized bacterial cell pellets using chloroform/methanol (Ways et al., J. Lipid Res. 5: 318-328 (1964)), and fatty acids were then converted to picolinyl ester (lipidlibrary.aocs.org/ms/ms02/index.htm) (Harvey, Biomed. Mass Spectrom. 9: 33-38 (1982)) or methyl esters using methanolic-HCl at 80° C. for 60 minutes (Broekman et al., J. Bacteriol. 116: 285-289 (1973); and Broekman et al., J. Bacteriol. 117: 971-977 (1974)). The recovered picolinyl ester or fatty acid methyl esters were concentrated as needed under a stream of nitrogen gas and analyzed with GC-MS interfaced with a Mass Detector 5973 (Agilent Technologies, Santa Clara, Calif.). The double bond positions in unsaturated fatty acids were determined by GC-MS analysis of dimethyl disulfide adducts (Buser et al., Anal. Chem. 55: 818-822 (1983)).
A KASIII-deficient strain was developed in the ΔbfabHA strain by inserting the erm gene into the bfabHB locus via a homologous double-crossover recombination event. […] The absence of either KASIII proteins in the rescued double-mutant strain was confirmed by Western blot analysis. These findings established that KASIII is essential for B. subtilis cellular metabolism.
Therefore, whether or not other fatty acids could improve the growth capabilities of the KASIII-deficient strain was examined. Rescue of the KASIII-deficient strain was attempted by the inclusion of anteiso- and iso-BCFAs, and normal saturated and unsaturated fatty acids of different chain lengths. These complementation experiments were conducted by providing these fatty acids in the media at three different concentrations (10, 30 and 100 μM each). […] None of the tested normal saturated chain fatty acids (n-C8:0, C10:0, C12:0, C14:0, C16:0 and C18:0) could rescue growth (at any of the tested concentrations).
Moreover, by conducting these tests at different growth temperatures, the degree to which these different types of fatty acids maintained membrane fluidity in response to thermal tolerance was assessed (Suutari et al., Crit. Rev. Microbiol. 20: 285-328 (1994)).
Four different types of 16-carbon fatty acids (anteiso-C16:0, iso-C16:0, palmitoleic acid, and palmitic acid) were supplied in the medium to evaluate the capacity of these different fatty acids to rescue the KASIII-deficient strain at four different temperatures between 16° C. and 37° C. […]

[1] = fatty acid in the media at 10 μM (lowest concentration tested)
[2] = fatty acid in the media at 30 μM

SMILES	Rescue of growth of the KASIII-deficient strain [1]	Support of growth of the KASIII-deficient strain (30 μM in LB medium)	Rescue of growth of the KASIII-deficient strain [2]	also measured
CCC(C)CCCCCCCCC(=O)O (stereo not shown) [anteiso-C13:0]	successful in complementing the KASIII deficiency			
CCC(C)CCCCCCCCCCCC(=O)O (stereo not shown) [anteiso-C16:0]	successful in complementing the KASIII deficiency	rescued the KASIII deficiency		Efficiency in supporting growth of the KASIII-deficient strain (all temperatures tested, 16° C. to 37° C., 30 μM in LB medium): most efficient in supporting growth
CC(C)CCCCCCCCCCCCC(=O)O [iso-C16:0]		incapable of supporting growth	able to rescue growth	
CCCCCCC=CCCCCCCCCC(=O)O [n-C17:1(10)]			could rescue the KASIII deficiency	
CCCCCCCC/C=C\CCCCCCCC(=O)O [oleic acid]				Rescue of growth of the KASIII-deficient strain (fatty acid in the media even at 100 μM): could not rescue the strain
CCCCCC/C=C\CCCCCCCC(=O)O [palmitoleic acid]		rescued the KASIII deficiency	could rescue the KASIII deficiency	
